Drawing on PubChem BioAssay AID463173 (ICCB-Longwood Screening Facility, Harvard Medical School, 2010), this text covers survival for 24 compounds.

Structures are written as SMILES. Among all 52,000 compounds or so, about 1,700 (3.3%) were called active. Cut-off read from the data, not from the text of the source: active = survival mostly below about 52% (no sharp cut-off); inactive = mostly above about 56%. The list shows a part of the results.

The assay concerns Wild type. The experiment in a line: S. aureus survival, RN4220 and DeltatarO strains – OD600, teichoic acid synthesis inhibitors, primary screen (AID 463173). The following applies: S. aureus RN4220 wild type/DeltatarO growth, OD600, 18 h, stronger effect = lower value, screened at 18.75 µg/mL (by protocol).
Regarding `COc1ccccc1NC(=O)C1=C(C)Nc2ncnn2C1c1cccn1C` (centres undefined), the survival is active: 0%.
Next, `CCOc1ccc(CN2C(=O)c3ccccc3C2C(=O)NCCc2ccc(OC)c(OC)c2)cc1` (centres undefined): inactive: 69%; `COc1ccc(Cn2c(CO)cnc2SCc2ccccc2C)cc1`: inactive: 78%; `COc1ccc(CNC(=O)Cc2c(C)c3cc4c(C)coc4c(C)c3oc2=O)cc1OC`: inactive: 98%.
Under `CCOC(=O)c1c(S(=O)(=O)N2CCC(C(=O)Nc3ccc(F)cc3F)CC2)c(C)n(C)c1C` stands inactive: 80%.
Under `CCOc1ccc(CNS(=O)(=O)c2ccc3c(c2)CCCN3C(C)=O)cc1` stands inactive: 66%; under `CC1Cc2cc(S(=O)(=O)CCC(=O)NCc3ccccc3Cl)ccc2N1C(=O)C1CC1` (centres undefined), inactive: 72%; under `COc1ccc(-n2cc(C(=O)Oc3cc(C)cc(C)c3)c3ccccc3c2=O)cc1`, inactive: 153%.
`COc1cccc(NC(=O)Cn2cc(C(=O)c3ccco3)c3ccccc32)c1`: the survival was inactive: 64%.
As for `O=C(CCSc1nc(-c2ccco2)cc(C(F)(F)F)n1)NC1CC1`, the survival is inactive: 111%.
Under `Cc1ccc(C)c(NC(=O)C2CCN(c3cc(C)nc4c(-c5ccc(Cl)cc5)c(C)nn34)CC2)c1` stands inactive: 83%; under `CCC(=O)N1CCc2cc(S(=O)(=O)Nc3cc(C)ccc3OC)ccc21`, inactive: 73%; under `COc1ccccc1CC(=O)Nc1ccc2nc(Nc3cccc(Cl)c3)cc(C)c2c1`, inactive: 148%.
With `Cc1ccc(-n2c(SCC(=O)c3ccccc3)nc3c([nH]c4ccccc43)c2=O)cc1`, the survival was active: -6%.
Take `COc1ccc(-c2csc3ncnc(Nc4cc(OC)cc(OC)c4)c23)cc1`: the survival is inactive: 124%.
For the compound `CC(C)C(=O)Nc1ccc2nc(SCC(=O)N3CCc4ccccc43)sc2c1`, the survival was inactive: 106%.
With `O=C(Nc1ccc2oc(-c3cccc(F)c3)nc2c1)c1ccc2ccccc2c1`, the survival is inactive: 81%.
Take `Cc1cc(C)cc(NC(=O)c2cc(S(=O)(=O)N3CCc4ccccc43)cn2C)c1`: the survival was inactive: 82%.
With `COc1ccccc1CNC(=O)c1ccc2c(c1)N(Cc1c(F)cccc1Cl)C(=O)CS2`, the survival is inactive: 66%.
Next, `CC(C)c1ccc(NC(=O)Cn2cc(S(=O)(=O)Cc3ccccc3Cl)c3ccccc32)cc1`: inactive: 72%; `CC1CCN(C(=O)CSc2nc3ccccc3nc2Cc2ccccc2)CC1`: inactive: 73%; `CCOc1ccccc1N1CCN(S(=O)(=O)c2ccc(C3CCCCC3)cc2)CC1`: inactive: 60%.
For the compound `COc1cccc(NC(=O)Cn2c(=O)n(CCCCC(=O)NCc3ccccc3Cl)c(=O)c3ccccc32)c1`, the survival is inactive: 80%.
With `CCCCC(Sc1nc2cc3c(cc2c(=O)n1CCCC(=O)NCc1ccc2c(c1)OCO2)OCO3)C(=O)OCC` (centres undefined), the survival is inactive: 99%.
